Experimental data as given in the supplement of paper PMC3334620.
In all, about 33,000 sequences were measured (“E-score (-0.5 to 0.5)”: median about -0.01, highest 2% from about 0.26 on). The list shows a part of the results.

target: Ste12 (UniProt P13574); experiment: PBM E-score (8-mer binding enrichment) (E-score (-0.5 to 0.5)); higher = stronger / more preferred TF binding; most listed sequences are background and not binding sites; settings: protein concentration: 200 nM; construct: GST-DNA-binding domain
How it was run: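 Detection of bound protein used fluorescent anti-GST, with scans normalised by masliner. The proteins were GST-tagged yeast transcription factors applied at about 100-200 nM to universal all-10-mer Agilent arrays made double-stranded by primer extension. Each ungapped eight-base word, pooled with its reverse complement, was scored with an E-score from the Universal PBM Analysis Suite.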

Sequence | PBM E-score
GGTTGTGA | 0.101
GGCGTCTA | -0.0213
TTAGACAA | 0.116
AAGATGTG | 0.0624
ACGCCCAC | 0.117
GGACTACC | -0.198
AGGTGTAC | -0.0483
AGTTCCAT | -0.06
AAACACCT | 0.104
TATCGTGA | -0.0366
GAGTACCA | 0.0726
GGTAAACC | -0.0553
GCCATAAA | 0.058
AATCCAAT | 0.094
CCCAAGAA | 0.0156
ATAACTCG | 0.162
GTTATAAC | 0.139
AATGCGAA | 0.0356
GTACGTAA | -0.0604
AACAGAGT | 0.173
ACCTTACT | 0.124
TAAGGCGA | 0.00976
GATGGATA | 0.0412
AGTTCAAG | 0.0102
ACCATCTA | -0.162

Sequence | PBM E-score
GCCTATGA | -0.215
CCATACTC | 0.0988
AAGTTGAA | 0.134
CATTTGCA | -0.00909
ATGTCTCG | -0.114
AGAACCTA | -0.0451
CGAGCTTC | 0.0482
AGCGCGCA | 0.131
AATCCCTC | 0.0988
CCATACAG | -0.0334
ACCCCTGG | -0.181
ACTATAGA | -0.0802
AGCGGCAA | 0.0352
GAGCCCCA | -0.204
AATTGAAC | -0.0364
ACCACCGG | -0.0277
ACTCACTC | 0.00569
CAGCAAGC | -0.251
CACCACTC | -0.164
GTCACGCA | -0.0567
GCAGTGCC | -0.244
ATATGTCA | 0.13
CAAGGTGA | 0.121
ATAACCGA | 0.128
TGGAACCA | 0.136

Sequence | PBM E-score
GGTCACGA | -0.00535
CGGCAGAA | -0.022
CCATTTGC | 0.061
ACGAACCA | -0.00982
CAAGTAAG | -0.0127
AAACGATT | 0.165
CAGCGAGG | -0.11
GCATCTGA | -0.236
GCCTATAC | -0.15
AGATTCCT | -0.00654
CTGATGAA | 0.108
AACCTGTC | -0.0511
ATTCGACC | 0.0126
CGCGTTCC | 0.0931
TGTAATAA | 0.163
CTACCAGA | 0.114
ACGACACA | 0.105
ATAGCTCG | -0.0872
GAGTGAGA | -0.0902
ATAGCCAT | -0.109
AGTTGGGA | 0.157
CGCAGCCA | -0.0553
GTTTGCGA | 0.114
CGCCGAAC | 0.101
TCACAAGA | -0.0277

Sequence | PBM E-score
ATGCGTAC | -0.153
ACCGAGAA | 0.192
CTCCTAAC | -0.181
CTGTTTAC | 0.0415
ACTCTGCC | -0.109
AAAAGACA | 0.146
ACGCACTG | -0.186
GCTATTTA | -0.13
GAAGCATA | 0.0481
ATGACGGA | 0.0141
AATCATCA | 0.142
CATGGAAA | 0.098
ACAGCAGG | 0.16
GAGTGGGA | -0.154
CCCATTAA | -0.1
CCACGCGG | -0.206
GAGCGCTA | -0.0377
GCCAGGAA | -0.03
AGTGACAT | -0.00427
CCAAACAG | -0.0043
GAGTAGAC | -0.084
CAAAGCTC | -0.115
GACCGTCC | -0.189
AACACGTA | -0.00756
AACGTAGG | -0.223

Sequence | PBM E-score
GTTATCCA | 0.00092
CCATAGAC | -0.0106
CCAGTTAA | 0.0557
AATTCATA | 0.129
CCTATTGA | -0.0128
AGACCTAT | 0.0452
AAGCCCAT | -0.103
AACATCAT | 0.0944
AAGGCCAA | -0.267
CTGCCTTC | -0.147
GCTCACCC | 0.0411
CGGGTCAG | 0.0171
CGCGAAAG | -0.00187
CTTACTAA | 0.0533
GATGAGAC | 0.175
CGTGTATA | -0.0309
ATAGCGCA | -0.0209
GCGCAAGA | -0.0203
TACGATCA | 0.0568
ATGTCTTG | -0.0211
AAGCGAAG | 0.102
AGTGAATG | 0.209
ACAATCAT | -0.0149
CTCTGAGA | 0.159
GACTCTTA | 0.116

Sequence | PBM E-score
CCCTGAAC | 0.0241
AACAAAAG | 0.119
GAGCTAGA | -0.0457
AGGCGTCC | -0.0703
GGCGGAAC | -0.021
CATCCAGC | 0.0067
CCATGGCC | 0.0296
AGCTTGCG | -0.151
AATGTAGA | -0.0184
AGAGTTAG | -0.00836
CTGTATAA | -0.00491
TGTACAAA | 0.0309
AGCTCTGC | -0.366
GCTTGTAC | 0.0617
CAATTGGC | 0.109
CCGGAGCA | -0.0401
ACCGAACA | 0.172
ATTCATAG | -7e-05
AAAGTGCG | 0.0163
GTATCCAC | -0.232
TTAGCAAA | 0.168
GCGCCAGA | -0.143
TCCATTAA | 0.156
CTCAAAAG | 0.161
CGTATGCC | -0.282

Sequence | PBM E-score
TACCGCCA | 0.172
GACATAGA | 0.0743
AGTCATCG | -0.0443
TCGTGTAA | 0.0344
GACGGAGA | -0.0869
ACTAACCC | 0.00258
CTGAGAAG | -0.289
ATTGCCCA | -0.122
GAGCCGAC | -0.164
CGCCTATA | 0.012
GCCTTAGA | 0.0798
CCTACACC | -0.0295
CATATGGA | -0.0446
TGACGCCA | -0.0754
AAATTAAT | 0.261
AAGCGAAT | 0.0373
AACTTTAC | -0.0461
ATGCACCA | -0.0677
CACTCGGC | 0.103
AGTCTTTC | -0.0904
CCTCGGGA | -0.0421
AACTACTC | 0.058
